From PMC10368634
No constants are given. Whether binding was seen depends on the method and setting. In cells and extracts the contact can be indirect. Some results given as binding are weak or reduced against the parent protein; the word gives no strength.

By UniProt entry, the sequences of proteins in these tests, tags left out. Where a name states a change or a piece, a line headed by the entry shows the natural chain unless it says otherwise. Chains listed by the source or under a name are the forms on record and can include a tag or linker. Residues count along the entry.
UniProt P09211: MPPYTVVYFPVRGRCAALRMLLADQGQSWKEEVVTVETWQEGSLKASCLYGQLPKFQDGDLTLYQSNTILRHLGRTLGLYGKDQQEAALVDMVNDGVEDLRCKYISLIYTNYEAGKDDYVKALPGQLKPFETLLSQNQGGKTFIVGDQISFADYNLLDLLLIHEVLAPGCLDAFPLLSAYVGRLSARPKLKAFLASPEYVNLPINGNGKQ
GFP-fused GSTP1 D1 region (1-70): residues 1-70 of P09211
GFP-fused GSTP1 D2 region: residues 71-140 of P09211
GFP-fused GSTP1 D3 region (141-210): residues 141-210 of P09211

Tests used:
[1] = molecular target: Flag-tagged G6PD 2YA mutant (Y249A/Y322A) (human) (UniProt P11413); assay: co-IP; HA-SRC or HA-GSTP1 co-transfected with Flag-G6PD WT or mutants (2YF/2YA) for 24 h; Flag-tagged G6PD immunopurified and immunoblotted
[2] = molecular target: Flag-tagged G6PD 2YF mutant (Y249F/Y322F) (human) (UniProt P11413); assay: as above
[3] = molecular target: Flag-tagged G6PD, wild type (human) (UniProt P11413); assay: as above
[4] = molecular target: GFP-fused GSTP1 D1 region (1-70) (human) (UniProt P09211); assay: co-IP; GFP or GFP fusions of GSTP1 (full length, D1, D2, D3) overexpressed in MCF-7 cells, anti-GFP beads, Western blots; also in glucose-deprived (0.5 mM) media without or with 20 mM lactic acid
[5] = molecular target: GFP-fused GSTP1 D2 region (human) (UniProt P09211); assay: as above
[6] = molecular target: GFP-fused GSTP1 D3 region (141-210) (human) (UniProt P09211); assay: as above
[7] = molecular target: GFP-fused full length GSTP1 (glutathione S-transferase pi) (human) (UniProt P09211); assay: as above
[8] = molecular target: Flag-tagged GSTP1 (human) (UniProt P09211); assay: co-IP; Flag-tagged GSTP1 overexpressed in MCF-7, Bcap37 and 293T for 24 h; glc medium (0.5 mM glucose), lac medium (plus 20 mM lactic acid) or NBDHEX medium (plus 10 uM NBDHEX) for 12 h; Flag (M2) beads, HEPES-lysis buffer, Western blot
[9] = molecular target: G6PD (glucose-6-phosphate dehydrogenase), endogenous (human (endogenous in MCF-7, Bcap37, 293T, HeLa, HepG2 and human breast tissue)) (UniProt P11413); assay: co-IP; endogenous G6PD immuno-enriched from lysates of 13 human breast cancer samples and adjacent normal tissues; SRC and GSTP1 detected by Western blot
[10] = molecular target: G6PD (glucose-6-phosphate dehydrogenase), endogenous (human (endogenous in MCF-7, Bcap37, 293T, HeLa, HepG2 and human breast tissue)) (UniProt P11413); assay: co-IP; endogenous proteins; MCF-7, HeLa, HepG2 lysates, 0.5 mM glucose without or with 20 mM lactic acid for 12 h; anti-G6PD antibody overnight at 4 °C, protein A/G agarose, Western blot

With HA-GSTP1 (from UniProt P09211 1-210) the binding [1] was “binds weakly”, the binding [2] was “binds weakly” and the binding [3] was “binds”.

With “G6PD (glucose-6-phosphate dehydrogenase), endogenous (from UniProt P11413 1-515) (enzyme)” the binding [4] was “binds”, the binding [5] was “no binding” and the binding [6] was “binds”. For the same substance, the binding [7] was “binds” and the binding [8] was “binds”.

For “GSTP1 (glutathione S-transferase pi), endogenous (from UniProt P09211 1-210) (enzyme)”, the binding [9] was “binds” and the binding [10] was “binds”.
